Results as given in PubChem BioAssay AID485367 (National Center for Advancing Translational Sciences (NCATS), 2010).
Out of some 330,000 compounds screened, about 560 (0.17%) were called active. This list was built around the results that the source calls inconclusive (neither active nor inactive); the mix of calls is not that of the screen. The call rests on the fitted dose curve; in most records, active means well fitted inhibition curve with a large enough effect; inconclusive means small, poorly fitted or top-dose-only effect, or effect the other way; inactive means flat fitted curve, though single readings scatter. Potencies of inconclusive entries are left out as doubtful fits.

Biological target: ATP-dependent 6-phosphofructokinase (Trypanosoma brucei brucei) (UniProt O15648)
Test: qHTS Assay to Find Inhibitors of T. brucei phosphofructokinase; further: nearly all actives have a fitted effect of over 60% in size;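 on activity, negative = inhibition: 0% = uninhibited 1x PFK enzyme wells and -100% = no-enzyme wells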
Conditions: T. brucei PFK, ADP-Glo luminescence; activity, negative = inhibition: at 57.5 µM (top of the series)
In short: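 ADP-Glo luminescence quantified ADP after 45 min at room temperature, with 1.25 nM T. brucei PFK, 0.1 mM ATP and 0.5 mM fructose-6-phosphate in pH 8.0 TEA buffer. qHTS titrations up to 57 µM; curves classified by quality.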
Potency means the concentration at half of the fitted maximal effect; tags describe the fitted curve by direction and shape.

Chain of UniProt O15648 (O15648 whole entry, looked up): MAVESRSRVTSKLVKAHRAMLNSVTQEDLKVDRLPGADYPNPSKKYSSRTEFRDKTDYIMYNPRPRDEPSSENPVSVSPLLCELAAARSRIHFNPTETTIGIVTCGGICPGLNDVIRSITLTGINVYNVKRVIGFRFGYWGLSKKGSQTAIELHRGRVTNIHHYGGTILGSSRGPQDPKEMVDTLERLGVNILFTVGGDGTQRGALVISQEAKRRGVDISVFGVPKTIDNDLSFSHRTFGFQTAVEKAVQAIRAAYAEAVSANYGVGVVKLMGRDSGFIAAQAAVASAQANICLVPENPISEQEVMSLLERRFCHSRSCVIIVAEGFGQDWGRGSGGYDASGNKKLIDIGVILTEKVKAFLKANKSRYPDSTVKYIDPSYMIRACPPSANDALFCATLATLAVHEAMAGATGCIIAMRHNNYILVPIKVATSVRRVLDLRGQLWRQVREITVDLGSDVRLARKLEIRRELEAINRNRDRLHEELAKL

| Structure (SMILES) | Potency | activity, negative = inhibition |
| --- | --- | --- |
| O=C1CC(SC(=NCc2ccc3c(c2)OCO3)Nc2ccccc2)C(=O)N1 (stereo not drawn) | inconclusive [falling, single point] | – |
| O=C(CSC1=NS(=O)(=O)c2cc(F)ccc2N1)Nc1cccc(F)c1 | inconclusive [falling, single point] | – |
| Cc1ccccc1OCCC(=O)OCC(=O)N1c2ccccc2NC(=O)C1(C)C | inconclusive [falling, single point] | – |
| COc1ccc(/C=C(\NC(=O)c2ccc(OC)cc2)C(=O)Nc2ccccc2C(=O)O)cc1 | inconclusive [activator, single point] | – |
| NC(=O)C1CCN(C(=O)CCC(=O)N2CCOc3ccc(Cl)cc32)CC1 | inconclusive [falling, single point] | – |
| COc1ccc2[nH]c3c(=O)n(CCCCC(=O)NCCN4CCCC4)c(=S)[nH]c3c2c1 | inconclusive [falling, partial curve] | – |
| COc1cc(Cl)c(C)cc1NC(=O)CSc1nnc(CN2CCCC2)o1 | inconclusive [activator, partial curve] | – |
| N#CC1=C(N)SC(N)=C(C#N)C1c1ccoc1 | inconclusive [falling, single point] | – |
| c1ccc(CCc2nc(-c3ccccc3)no2)cc1 | – | inactive: -0.798% |
| CC(C)(C)c1csc(NC(=O)c2ccc(Br)o2)n1 | – | inactive: -8.71% |
| C#CCOCCOCCOCCNc1nc(N2CCN(C(=O)CCCCCCCCCCNC(=O)[C@H](CO)n3cc(CCCSC)nn3)CC2)nc(N2CCN(C(=O)CCCCCCCCCCNC(=O)[C@H](CCCCN)n3cc(C[C@@H](C)CC)nn3)CC2)n1 | inconclusive [activator, single point] | – |
| CC(C)N(Cc1nnc(-c2ccc(Cl)cc2)o1)C(=O)c1cc2ccccc2o1 | – | inactive: 0.361% |
| O=C(NCCc1ccccc1)c1ccnc(/C=N/O)c1 | inconclusive [falling, single point] | – |
| CCOC(=O)c1c(NC(=O)CSc2ccccc2C(=O)O)sc(C)c1C | – | inactive: -20.2% |
| NS(=O)(=O)c1ccc(NC(=S)NCCc2ccccc2)cc1 | inconclusive [falling, single point] | – |
| CN(C)CCNC(=O)NC(=O)c1ccc(Cl)cc1 | inconclusive [falling, single point] | – |
| Cc1ccc2nc(-c3ccc(O)c(O)c3)cn2c1 | inconclusive [falling, partial curve] | – |
| CN(C(=O)C1CC1)C1CCS(=O)(=O)C1 (stereo not drawn) | inconclusive [falling, single point] | – |
| COc1ccc2oc(=O)c(C(=O)NCc3ccccc3)cc2c1 | – | inactive: -1.13% |
| O=c1[nH]sc2ccccc12 | active: 19 µM | – |
| CCOc1ccc(/C=C/C(=O)c2ccccc2)cc1 | inconclusive [falling, single point] | – |
| Cc1ccc2c(c1)N(CC(=O)NCCCc1ccccc1)C(=O)c1cccnc1O2 | – | inactive: -2.68% |
| CN(C)c1ccc(CC(=O)c2nc3ccccc3s2)cc1 | – | inactive: 0.546% |
| Cc1cccc(CSC2=NCCN2S(=O)(=O)c2ccc(F)cc2)c1 | – | inactive: 0.806% |
| CCOC(=O)c1c(-c2ccc(C)o2)csc1NC(=O)COC(=O)c1ccc(NC(N)=O)cc1 | active: 2.13 µM | – |

| Structure (SMILES) | Potency | activity, negative = inhibition |
| --- | --- | --- |
| Cc1cc(-c2nn3c(-c4ccccc4)nnc3s2)c2ccccc2n1 | – | inactive: 1.24% |
| CCn1c(Cn2nnc(-c3ccccc3)n2)nnc1SCc1ccc(Cl)c(Cl)c1 | inconclusive [falling, partial curve] | – |
| CSCCC(NS(=O)(=O)c1ccc2c(c1)OCCO2)C(=O)N(C)Cc1ccccc1F (stereo not drawn) | – | inactive: 7.36% |
| CCN1CCN(Cc2ccc(NC(=O)c3ccc(C)c(NC(=O)c4ccno4)c3)cc2C(F)(F)F)CC1 | – | inactive: 2.61% |
| C[n+]1cccc2cccc([O-])c21 | inconclusive [falling, partial curve] | – |
| Cc1ccc(S(=O)(=O)CNC(=S)c2ccc3ccccc3c2)cc1 | inconclusive [falling, partial curve] | – |
| CCN(CC)C(=O)c1ccc(-c2nnc(Nc3cccc(O)c3)c3ccccc23)cc1 | – | inactive: -3.3% |
| N#Cc1c(C(F)(F)F)cc(=O)[nH]c1SCC(=O)O | inconclusive [activator, single point] | – |
| COc1cccc(C(=O)OCC(=O)Nc2cc(C)on2)c1OC | – | inactive: 3.73% |
| N#CC1=C2SCN(c3ccc(F)cc3)CN2C(=O)CC1c1cccc(F)c1 (stereo not drawn) | – | inactive: -6.56% |
| CCc1ccc(Nc2nnc(SCC(=O)Nc3sccc3C(N)=O)s2)cc1 | – | inactive: 2.54% |
| Cc1n[nH]c(=S)n1/N=C/c1cccc(OCc2ccccc2)c1 | inconclusive [falling, full curve, poor fit] | – |
| CCOC(=O)c1ccc(N=c2ssnc2Cl)cc1 | inconclusive [falling, single point] | – |
| O=C(CCC(=O)OCc1ccc([N+](=O)[O-])cc1)Nc1ccccc1Cl | inconclusive [falling, single point] | – |
| NC(=S)NN=Cc1ccc(-c2ccc(S(=O)(=O)Nc3ncccn3)cc2)o1 | inconclusive [falling, single point] | – |
| CC1CN(S(=O)(=O)c2cc(C(=O)NCc3ccncc3)ccc2Cl)CC(C)O1 (stereo not drawn) | inconclusive [falling, partial curve] | – |
| NC(=O)c1c(NC(=O)C2c3ccccc3Oc3ccccc32)sc2c1CCCCC2 | inconclusive [falling, single point] | – |
| Oc1ccc(/C=N/Nc2nccnc2Cl)cc1 | inconclusive [falling, partial curve] | – |
| O=C(c1ccco1)N1N=C(c2cccs2)CC1c1ccc(F)cc1 (stereo not drawn) | – | inactive: -2.49% |
| Oc1ccc(C=Nc2ccccc2-c2nc3ccccc3[nH]2)cc1 | inconclusive [falling, full curve, poor fit] | – |
| Nc1cc(=O)[nH]c(SCc2ccc(Cl)cc2)n1 | inconclusive [falling, single point] | – |
| O=C(NCCc1ccccc1)c1cc2sccc2n1Cc1ccccc1 | inconclusive [falling, full curve, poor fit] | – |
| Cc1ccc(C(=O)O)cc1-c1ccc(C=C2C(=O)c3ccccc3C2=O)o1 | inconclusive [falling, single point] | – |
| O=C(C1CCN(c2nnc(-n3cccc3)s2)CC1)N1CCc2ccccc2C1 | – | inactive: -0.0102% |
| CCCNC(=O)C(Cc1ccc(C(F)(F)P(=O)(OCC)OCC)cc1)NC(=O)c1ccc(C#N)cc1 (stereo not drawn) | inconclusive [falling, single point] | – |

| Structure (SMILES) | Potency | activity, negative = inhibition |
| --- | --- | --- |
| C/C(=N\NC(=O)Cc1csc(N2CCOCC2)n1)c1ccccc1 | – | inactive: -3.4% |
| Cc1ccc(/C=N/NC(=O)CSc2nc3ccccc3n2Cc2ccccc2)o1 | inconclusive [falling, single point] | – |
| Oc1ccc(N=Nc2ccccc2-c2nn[nH]n2)c(O)c1 | inconclusive [activator, partial curve] | – |
| O=C(c1cccn(Cc2cccc(Cl)c2)c1=O)N1CCOCC1 | active: 23.9 µM | – |
| COc1cc(OC)c(NC(=O)c2sc3ncn(CC(=O)N4CCOCC4)c(=O)c3c2C)cc1Cl | inconclusive [falling, single point] | – |
| Cc1ccc(C(=O)COC(=O)CCCC(=O)NC2CCCCC2)cc1[N+](=O)[O-] | inconclusive [falling, single point] | – |
| COc1ccccc1/C=C/C(=O)c1ccc(Cl)cc1 | – | inactive: -1.46% |
| CCSc1nnc(NC(=O)c2ccc3nc[nH]c3c2)s1 | inconclusive [falling, single point] | – |
| CN(C)CCCNc1oc(-c2cccc(Cl)c2)nc1C#N | – | inactive: 2.55% |
| CCOC(=O)N1CCC(N2Cc3cccc(C(=O)NCc4ccc5c(c4)OCO5)c3C2=O)CC1 | inconclusive [falling, single point] | – |
| O=C(c1ccccc1)c1cc(Cl)ccc1N1C(=O)C=CC1=O | inconclusive [falling, single point] | – |
| Cc1nnc(SCC(=O)NCc2ccco2)n1Cc1ccccc1 | – | inactive: -2.5% |
| Cc1ccc(S(=O)(=O)N(C(=O)c2ccncc2)c2ccc(OC(=O)c3ccncc3)c3ccccc23)c(C)c1 | inconclusive [falling, partial curve] | – |
| Cc1ccc(C)c(N2CCN(CC3CCCCC3)CC2)c1 | inconclusive [falling, single point] | – |
| O=C(/C=C/c1ccccc1)NC(=S)NNC(=O)c1ccco1 | – | inactive: -0.433% |
| COc1ccc(CNc2ccc([N+](=O)[O-])cn2)cc1 | inconclusive [falling, partial curve] | – |
| Cc1coc2cc3oc(=O)c(CCC(=O)NCCCN4CCCC4=O)c(C)c3cc12 | – | inactive: -1.21% |
| COc1cccc(C(=O)NN2C(=S)N(c3ccccc3)C(=O)C2CC(N)=O)c1 (stereo not drawn) | inconclusive [falling, partial curve] | – |
| NS(=O)(=O)c1ccc(CCNC(=O)c2cc3ccccc3s2)cc1 | inconclusive [falling, single point] | – |
| CCc1nnc(NS(=O)(=O)c2ccc(NC(=O)COc3ccc4ccccc4c3)cc2)s1 | inconclusive [falling, single point] | – |
| N#C/C(=C/c1ccc(O)c(O)c1)C(=O)NCc1ccc(Cl)cc1 | inconclusive [falling, partial curve] | – |
| O=C(c1ccccc1)N1CCN(c2ncnc3sc4c(c23)CCC4)CC1 | – | inactive: -6.38% |
| COc1ccccc1C(=O)NCCC(=O)Nc1ccc(S(=O)(=O)N2C(C)CCCC2C)cc1 (stereo not drawn) | inconclusive [falling, partial curve] | – |
